Results published in the supplement of paper PMC11417369.
The other results are listed elsewhere or left out.

test system: PfSIP2 AP2 domain 1 (GST-tagged); test: gcPBM binding intensity (ln(normalized median fluorescence intensity)); higher = stronger DNA binding
Outline: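 The highest Masliner-normalised natural-log median intensity across replicate spots of either probe orientation is reported as binding intensity. GST-tagged P. falciparum DNA-binding domains expressed in E. coli were applied for 1 h to an Agilent 4 × 180k array of primer-extended double-stranded 36-bp intergenic genomic probes plus negative controls, and bound protein was detected with Alexa488 anti-GST antibody and scanned at 488 nm.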

Sequence	gcPBM binding intensity (ln)
TTAATCTTTCCTACATGTACACACAGAAAAAAAAAA [XGTACX_site5213]	7.42
AATATAAATAAAAAATTGATTTCTTTAAAAAGGTAT [CACACA_negctrl_site1038]	6.78
TACAAATGAGAAATATGTACATAAAAAAAAAAAAAT [XGTACX_site801]	7.2
TTGTTCTTTCAAATTATACACACCAAAAAAAAAAAA [CACACA_site3070]	7.21
TAATCATAAAAAAATACACACATATATAATATATAT [CACACA_site1983]	7.32
ATACAAAATCTAATTTGTACACAATGTTTGATTTTT [XGTACX_site5438]	6.79
ATACAAATTAAGCCTCAAGTTCTTTTTTTTAACATA [XGTACX_negctrl_site580]	6.58
ATATAACATGGACACACACACATATATATATATTAT [CACACA_site6135]	7.35
GTGAAATTATATTTTTGTACATATATTATATATTAT [XGTACX_site3387]	7.07
AAAAAAAAGAATTATTGTACAAAAGAACAATAAATA [XGTACX_site1368]	6.75
GGTGCACCCATATACACACACAAATACAATGATAAA [CACACA_site1132]	12.4
GTATATATCTAAAAATATATATATATATATATATAT [CACACA_negctrl_site788]	9.43
ATCGAAGGGGTACAAAATAAAAATAATTCTTTCAAA [TGCATGCA_negctrl_site373]	7.16
TATAAATAAATATGGAGTACCAAAAAAATTATAAAA [XGTACX_site7581]	7
AAGTGTTATGAAATATGTACACATATATTATATATA [XGTACX_site6022]	7.32
AAATATAAAAAAAAAAGTACTTTGTTACTTTTCTAT [XGTACX_site6034]	6.79
TTTTTATTAAATAAAGCACACACAACAACTTTTCAC [CACACA_site9372]	7.37
TAACCATAAGAAGATTGTACATAATAAAAGTATTCT [XGTACX_site1117]	6.84
AAAATAAATATAACCACACACGAAAGAGAGAGAAAA [CACACA_site3272]	6.89
AACTGCAAAAAAAGACGTACAAATTATTAATTGCAA [XGTACX_site8929]	7.04
ATATATATATATATATGTACATACCCAATTGTGTAA [XGTACX_site6352]	9.52
ATTTAAAATGGTTATACACACATAAAAGGGGAAATG [CACACA_site2649]	7.1

Sequence	gcPBM binding intensity (ln)
TACAGACATACATACACACATACATATATATATATA [CACACA_site1940]	9.51
TTAAGTCATAAATAAAGTACATAAATATAATATATA [XGTACX_site6304]	7.16
ATGTAAATGTTATTATGTACATATTTATTCTTCAAA [XGTACX_site7377]	6.95
TCCAATTAAATATATGAACACACATGTGAACTTTCT [CACACA_site9318]	6.78
GGGGGTAGGGGAAGAAGTACAATGATCACTACAGTA [XGTACX_site1169]	8.75
TTTTTTATTAAAAGCGAAAAAAATGAAAACTTTTTT [GTGCAC_negctrl_site605]	6.61
TTTTTAATTAACTTTGTAAACTTATATATATATATA [TGCATGCA_negctrl_site311]	9.33
TTAAAGCACCCATGCACACACACAAGGGAAAAGAAA [CACACA_site4289]	9.41
AAGGAATATTAAGTGGGTACTAAAAAAAAATTAATT [XGTACX_site331]	7.01
GAAGTAGATGGAAAAGTGCACTGTAATGGTTATATT	10.3
TGTATATAGAAACATACACACATATTAATTTTACAT [CACACA_site3126]	7.09
ATTTTTAATCATTTACAACCTAGTGATTATACAAAT [CACACA_negctrl_site1089]	6.92
CGTATGCGTATATACACACCCACGTATATATATAAA [CACACA_site3200]	7.09
ATATAATAATTGTACACATGCACACACAAATATTAT [TGCATGCA_site204]	7.87
ATAGCCAAAAATCATGCACACCTAAAAAAAAAAAAA [CACACA_site8826]	7.21
TATATTTATGTATATGTGCACATAAATTTAAGAATG [GTGCAC_site9512]	8.33
GTATATATATTTGTACGTACATATTGTTGTAAACAC [XGTACX_site8833]	7.37
AAGAGAGACATCAACACACATACGTATGTATAGAAA [CACACA_site1397]	6.74
TTTTTTATTGTGATACGTATATTATTTTATGATTAA [GTGCAC_negctrl_site202]	7.02
TTCATTTTAATAATATGTACATAATATATTTAAAAA [XGTACX_site634]	7.43
ATTTTTTTTTTTATAGTGGAACCACATTTGCCATTT [CACACA_negctrl_site1247]	6.88
TATTAAATGAAACAAACACACATAGCCTTTAAATAT [CACACA_site1560]	7.02

Sequence	gcPBM binding intensity (ln)
TTAGGACAAAAAAAAATAAAAATAAAATAAAATAAT [CACACA_negctrl_site1613]	6.77
AAATTATATATATTTACATGCAATATAATGAAATAA [TGCATGCA_site229]	6.78
ATAAAATAAAACAGAGCACACATTTTATTTACATTC [CACACA_site696]	6.89
ATATATATATCATATTGTACATATTATTGTATAATC [XGTACX_site5020]	7.87
ATATAAACATGTTTGTGTACGTAATATGAAAAATAA [XGTACX_site8157]	7.4
GTATGTATAATATACACACTCACAAGCATTCAAATA [CACACA_site267]	6.91
TTGTTTTTAAGAAAAACACACACTCCTGTTATTTTA [CACACA_site9230]	6.68
AAATATTATACAAAAAAAAAAAAAAAAAAAATATAT [CACACA_negctrl_site52]	6.84
ATTTTGTATATATTTTGTACATATTTTGTATATATT [XGTACX_site885]	6.99
AAAAATAAAAAGAATTGTACATATAAATCATATACA [XGTACX_site6860]	6.8
GACCCAATGAAAAGGTCACACATTTTTTCTTTTCGA [CACACA_site5074]	6.71
TAAAAATATATAAACAGTACATAAATTAAATAAATA [XGTACX_site6962]	6.78
GTTAAAATTTGTCAATGTACAGAAATAATAAAAAAA [XGTACX_site1879]	7.13
AAAGTTTTTACCAAGTGTACATATATATATATATAT [XGTACX_site5786]	9.13
GTTTATTTATTTTATGTGCACATATAACAAAAAAAA	9.16
TATTTTTTTTAGCGTACATGCAAAAAAAAAAAAAAA [TGCATGCA_site555]	7.58
TTTTTTCTTTAATACTCAATATGATAAAAGTAACAC [XGTACX_negctrl_site163]	7.3
ACAAAGTAAAATAATGCATGTAGGTATACATAATTA [TGCATGCA_site607]	6.64
GTGCTAAAAGTATATGCACACACATATATATGCACA [CACACA_site8472]	9.97
AATATTTTATATAAATGTACATTTATGAATAATATA [XGTACX_site8477]	7.1
ACATATTTCCAATAATGTACATACAAAATAAGAATG [XGTACX_site2659]	7.23
TGTTCATTTATTTACTTACACACTTTATATATGTGG [CACACA_site1410]	6.94

Sequence	gcPBM binding intensity (ln)
TAAAAGTAGATATATACACACATAAATATAGATGTA [CACACA_site6457]	6.78
AGGAAAAAAAAAATGTGTACTTAAAAAAAAAAAATT [XGTACX_site1471]	7.47
AATAAATAAATATATACACACATATATCTGTACATA [CACACA_site9034]	7.08
CGTTTATATTTTAACTGTACTCAAAAAGTGCATTGT [XGTACX_site6072]	8.36
TTTTATCATATTTATTGTACACATAATATACATATC [XGTACX_site1145]	7.23
TGTATGTTTATTTATCGTACATATATATATATATAT [XGTACX_site7315]	9.89
TTTTATATATTATATACACACATATATATATATATA [CACACA_site2999]	9.39
CATTTTATAAAAAGCACACATATAGTTATATGCACA [CACACA_site3691]	9.4
TAAATTATAATAAATACACACAAATTATAATTCTAT [CACACA_site3942]	6.88
TTTGAATCCTTATATACACACATTATATAATATTAT [CACACA_site4472]	7.42
TATATATATATACATTGTACATTATTGATTATAACA [XGTACX_site1678]	9.52
AAATTAGAATTAGGAACACACATATTTATATTTATA [CACACA_site7450]	6.8
TTTATTCTCCGACACACACACATATATTTATTTATA [CACACA_site7377]	7.2
ATATATAAAAAATGTGGTACATTCATTTATTATACA [XGTACX_site3495]	6.96
AATATATAAGTCTACTGTACCCAAAATAAAATTTAT [XGTACX_site8727]	7.08
GTATATATACATAAATGTACATATATATAAAAAATG [XGTACX_site3271]	7.01
ATATATCCAAATAGATTACATATATATATATAGATA [TGCATGCA_negctrl_site277]	7.23
AAATATAATAAAATGACACACGCATATATATATATA [CACACA_site8900]	9.24
AACATTATAAGACACACACACACATATATAAATATA [CACACA_site6622]	7.31
ATATATTTATATATTGCACACAAAAAAAAAAAAAAA [CACACA_site8468]	7.18
AAATAAGAACATAGAATGCACTTTTTTTTTTTTTCC	8.08
TATTGCCCTTGACACACACACATATAAATAAATATA [CACACA_site7220]	7.62
